From PMC7053169 come the findings set out here.

Sequences of proteins named here, by UniProt entry; tags and fusion partners are left off. Residues count along the entry.
UniProt P26660, residues 814-1030: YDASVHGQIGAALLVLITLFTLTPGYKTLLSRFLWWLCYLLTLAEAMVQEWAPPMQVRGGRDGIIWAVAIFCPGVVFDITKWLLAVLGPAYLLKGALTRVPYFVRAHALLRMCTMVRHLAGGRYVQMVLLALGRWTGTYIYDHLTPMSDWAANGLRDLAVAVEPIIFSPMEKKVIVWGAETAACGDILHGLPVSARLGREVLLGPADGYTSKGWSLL

The target of this test is GLuc2-NS2 (HCV NS2 protein derived from the J6/JFH genome, fused to a Gaussia luciferase fragment) (hepatitis C virus (J6/JFH)) (UniProt P26660). Nature of the test: split reporter; HT-GPCA (Gaussia princeps split-luciferase complementation): GLuc1-UPS (prey) and GLuc2-NS2 (bait) transfected pairwise into 293T cells, luciferase at 24 hr; primary screen (RLU, boxplot) and secondary screen (NLR, Z score).

No constants are given. Whether binding was seen depends on the method and setting. Binding seen in cells or lysates may run through a third protein. Some binding calls cover weakened binding; strength is not graded here. Sequences can lack the tags named with a protein.

B1: GLuc1-MARCH10 (enzyme, UniProt Q8NA82 1-808)
chain: MLHDARDRQKFFSDVQYLRDMQHKVDSEYQACLRRQEYRRDPNEKKRDQFWGQETSFERSRFSSRSSSKQSSSEEDALTEPRSSIKISAFKCDSKLPAIDQTSVKQKHKSTMTVRKAEKVDPSEPSPADQAPMVLLRKRKPNLRRFTVSPESHSPRASGDRSRQKQQWPAKVPVPRGADQVVQQEGLMCNTKLKRPNQERRNLVPSSQPMTENAPDRAKKGDPSAPSQSELHPALSQAFQGKNSPQVLSEFSGPPLTPTTVGGPRKASFRFRDEDFYSILSLNSRRESDDTEEETQSEECLWVGVRSPCSPSHHKRSRFGGTSTPQAKNKNFEENAENCRGHSSRRSEPSHGSLRISNAMEPATERPSAGQRLSQDPGLPDRESATEKDRGGSENAKKSPLSWDTKSEPRQEVGVNAENVWSDCISVEHRPGTHDSEGYWKDYLNSSQNSLDYFISGRPISPRSSVNSSYNPPASFMHSALRDDIPVDLSMSSTSVHSSDSEGNSGFHVCQPLSPIRNRTPFASAENHNYFPVNSAHEFAVREAEDTTLTSQPQGAPLYTDLLLNPQGNLSLVDSSSSSPSRMNSEGHLHVSGSLQENTPFTFFAVSHFPNQNDNGSRMAASGFTDEKETSKIKADPEKLKKLQESLLEEDSEEEGDLCRICQIAGGSPSNPLLEPCGCVGSLQFVHQECLKKWLKVKITSGADLGAVKTCEMCKQGLLVDLGDFNMIEFYQKHQQSQAQNELMNSGLYLVLLLHLYEQRFAELMRLNHNQVERERLSRNYPQPRTEENENSELGDGNEGSISQSQVV
On to B1, for which the binding entry is listed as “no binding”.

B2: GLuc1-MARCH8 (enzyme, UniProt Q5T0T0 1-291)
chain: MSMPLHQISAIPSQDAISARVYRSKTKEKEREEQNEKTLGHFMSHSSNISKAGSPPSASAPAPVSSFSRTSITPSSQDICRICHCEGDDESPLITPCHCTGSLHFVHQACLQQWIKSSDTRCCELCKYEFIMETKLKPLRKWEKLQMTSSERRKIMCSVTFHVIAITCVVWSLYVLIDRTAEEIKQGQATGILEWPFWTKLVVVAIGFTGGLLFMYVQCKVYVQLWKRLKAYNRVIYVQNCPETSKKNIFEKSPLTEPNFENKHGYGICHSDTNSSCCTEPEDTGAEIIHV
As to B2, the binding entry is listed as “binds”.

B3: GLuc1-RNFT2 (enzyme, UniProt Q96EX2 1-444)
chain: MWLFTVNQVLRKMQRRHSSNTDNIPPERNRSQALSSEASVDEGGVFESLKAEAASPPALFSGLSGSLPTSSFPSSLVLGSSAGGGDVFIQMPASREEGGGRGEGGAYHHRQPHHHFHHGGHRGGSLLQHVGGDHRGHSEEGGDEQPGTPAPALSELKAVICWLQKGLPFILILLAKLCFQHKLGIAVCIGMASTFAYANSTLREQVSLKEKRSVLVILWILAFLAGNTLYVLYTFSSQQLYNSLIFLKPNLEMLDFFDLLWIVGIADFVLKYITIALKCLIVALPKIILAVKSKGKFYLVIEELSQLFRSLVPIQLWYKYIMGDDSSNSYFLGGVLIVLYSLCKSFDICGRVGGVRKALKLLCTSQNYGVRATGQQCTEAGDICAICQAEFREPLILLCQHVFCEECLCLWLDRERTCPLCRSVAVDTLRCWKDGATSAHFQVY
Consider B3, for which the binding entry is “binds”.

B4: GLuc1-RNF34 (enzyme, UniProt Q969K3 1-372)
chain: MKAGATSMWASCCGLLNEVMGTGAVRGQQSAFAGATGPFRFTPNPEFSTYPPAATEGPNIVCKACGLSFSVFRKKHVCCDCKKDFCSVCSVLQENLRRCSTCHLLQETAFQRPQLMRLKVKDLRQYLILRNIPIDTCREKEDLVDLVLCHHGLGSEDDMDTSSLNSSRSQTSSFFTRSFFSNYTAPSATMSSFQGELMDGDQTSRSGVPAQVQSEITSANTEDDDDDDDEDDDDEEENAEDRNPGLSKERVRASLSDLSSLDDVEGMSVRQLKEILARNFVNYSGCCEKWELVEKVNRLYKENEENQKSYGERLQLQDEEDDSLCRICMDAVIDCVLLECGHMVTCTKCGKRMSECPICRQYVVRAVHVFKS
For B4, the binding entry is on record as “binds”.

B5: GLuc1-RNF24 (enzyme, UniProt Q9Y225 1-148)
chain: MSSDFPHYNFRMPNIGFQNLPLNIYIVVFGTAIFVFILSLLFCCYLIRLRHQAHKEFYAYKQVILKEKVKELNLHELCAVCLEDFKPRDELGICPCKHAFHRKCLIKWLEVRKVCPLCNMPVLQLAQLHSKQDRGPPQGPLPGAENIV
Regarding B5, the binding result is “binds”.

B6: GLuc1-CGRRF1 (enzyme, UniProt Q99675 1-332)
chain: MAAVFLVTLYEYSPLFYIAVVFTCFIVTTGLVLGWFGWDVPVILRNSEETQFSTRVFKKQMRQVKNPFGLEITNPSSASITTGITLTTDCLEDSLLTCYWGCSVQKLYEALQKHVYCFRISTPQALEDALYSEYLYQEQYFIKKDSKEEIYCQLPRDTKIEDFGTVPRSRYPLVALLTLADEDDREIYDIISMVSVIHIPDRTYKLSCRILYQYLLLAQGQFHDLKQLFMSANNNFTPSNNSSSEEKNTDRSLLEKVGLSESEVEPSEENSKDCVVCQNGTVNWVLLPCRHTCLCDGCVKYFQQCPMCRQFVQESFALCSQKEQDKDKPKTL
Take B6: the binding result was “binds”.

B7: GLuc1-RNF152 (enzyme, UniProt Q8N8N0 1-203)
chain: METLSQDSLLECQICFNYYSPRRRPKLLDCKHTCCSVCLQQMRTSQKDVRCPWCRGVTKLPPGFSVSQLPDDPEVLAVIAIPHTSEHTPVFIKLPSNGCYMLPLPISKERALLPGDMGCRLLPGSQQKSVTVVTIPAEQQPLQGGAPQEAVEEEQDRRGVVKSSTWSGVCTVILVACVLVFLLGIVLHNMSCISKRFTVISCG
Regarding B7, the binding entry is listed as “binds”.

B8: GLuc1-AREL1 (enzyme, UniProt O15033 1-823)
chain: MFYVIGGITVSVVAFFFTIKFLFELAARVVSFLQNEDRERRGDRTIYDYVRGNYLDPRSCKVSWDWKDPYEVGHSMAFRVHLFYKNGQPFPAHRPVGLRVHISHVELAVEIPVTQEVLQEPNSNVVKVAFTVRKAGRYEITVKLGGLNVAYSPYYKIFQPGMVVPSKTKIVCHFSTLVLTCGQPHTLQIVPRDEYDNPTNNSMSLRDEHNYTLSIHELGPQEEESTGVSFEKSVTSNRQTFQVFLRLTLHSRGCFHACISYQNQPINNGEFDIIVLSEDEKNIVERNVSTSGVSIYFEAYLYNATNCSSTPWHLPPMHMTSSQRRPSTAVDEEDEDSPSECHTPEKVKKPKKVYCYVSPKQFSVKEFYLKIIPWRLYTFRVCPGTKFSYLGPDPVHKLLTLVVDDGIQPPVELSCKERNILAATFIRSLHKNIGGSETFQDKVNFFQRELRQVHMKRPHSKVTLKVSRHALLESSLKATRNFSISDWSKNFEVVFQDEEALDWGGPRREWFELICKALFDTTNQLFTRFSDNNQALVHPNPNRPAHLRLKMYEFAGRLVGKCLYESSLGGAYKQLVRARFTRSFLAQIIGLRMHYKYFETDDPEFYKSKVCFILNNDMSEMELVFAEEKYNKSGQLDKVVELMTGGAQTPVTNANKIFYLNLLAQYRLASQVKEEVEHFLKGLNELVPENLLAIFDENELELLMCGTGDISVSDFKAHAVVVGGSWHFREKVMRWFWTVVSSLTQEELARLLQFTTGSSQLPPGGFAALCPSFQIIAAPTHSTLPTAHTCFNQLCLPTYDSYEEVHRMLQLAISEGCEGFGML
As to B8, the binding result was “binds”.

B9: GLuc1-RNF139 (enzyme, UniProt Q8WU17 1-664)
chain: MAAVGPPQQQVRMAHQQVWAALEVALRVPCLYIIDAIFNSYPDSSQSRFCIVLQIFLRLFGVFASSIVLILSQRSLFKFYTYSSAFLLAATSVLVNYYASLHIDFYGAYNTSAFGIELLPRKGPSLWMALIVLQLTFGIGYVTLLQIHSIYSQLIILDLLVPVIGLITELPLHIRETLLFTSSLILTLNTVFVLAVKLKWFYYSTRYVYLLVRHMYRIYGLQLLMEDTWKRIRFPDILRVFWLTRVTAQATVLMYILRMANETDSFFISWDDFWDLICNLIISGCDSTLTVLGMSAVISSVAHYLGLGILAFIGSTEEDDRRLGFVAPVLFFILALQTGLSGLRPEERLIRLSRNMCLLLTAVLHFIHGMTDPVLMSLSASHVSSFRRHFPVLFVSACLFILPVLLSYVLWHHYALNTWLFAVTAFCVELCLKVIVSLTVYTLFMIDGYYNVLWEKLDDYVYYVRSTGSIIEFIFGVVMFGNGAYTMMFESGSKIRAFMMCLHAYFNIYLQAKNGWKTFMNRRTAVKKINSLPEIKGSRLQEINDVCAICYHEFTTSARITPCNHYFHALCLRKWLYIQDTCPMCHQKVYIEDDIKDNSNVSNNNGFIPPNETPEEAVREAAAESDRELNEDDSTDCDDDVQRERNGVIQHTGAAAEEFNDDTD
Turning to B9, the binding entry is on record as “binds”.
